Data from publication PMC4336329 (PLoS ONE, 2015).
About 14,000 (4.5%) of roughly 310,000 compounds showed an effect of 50% or more. Effects have a minus sign here. This is one part of the list.

The molecules below were run against human ether-à-go-go-related gene (hERG) potassium channel (human, UniProt Q12809) (assay: primary screen, population patch clamp on CHO cells stably expressing hERG).
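Also: peak tail current of the secondary pulse compared with the same well before compound.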

Chain of human ether-à-go-go-related gene (hERG) potassium channel (Q12809 whole entry, looked up): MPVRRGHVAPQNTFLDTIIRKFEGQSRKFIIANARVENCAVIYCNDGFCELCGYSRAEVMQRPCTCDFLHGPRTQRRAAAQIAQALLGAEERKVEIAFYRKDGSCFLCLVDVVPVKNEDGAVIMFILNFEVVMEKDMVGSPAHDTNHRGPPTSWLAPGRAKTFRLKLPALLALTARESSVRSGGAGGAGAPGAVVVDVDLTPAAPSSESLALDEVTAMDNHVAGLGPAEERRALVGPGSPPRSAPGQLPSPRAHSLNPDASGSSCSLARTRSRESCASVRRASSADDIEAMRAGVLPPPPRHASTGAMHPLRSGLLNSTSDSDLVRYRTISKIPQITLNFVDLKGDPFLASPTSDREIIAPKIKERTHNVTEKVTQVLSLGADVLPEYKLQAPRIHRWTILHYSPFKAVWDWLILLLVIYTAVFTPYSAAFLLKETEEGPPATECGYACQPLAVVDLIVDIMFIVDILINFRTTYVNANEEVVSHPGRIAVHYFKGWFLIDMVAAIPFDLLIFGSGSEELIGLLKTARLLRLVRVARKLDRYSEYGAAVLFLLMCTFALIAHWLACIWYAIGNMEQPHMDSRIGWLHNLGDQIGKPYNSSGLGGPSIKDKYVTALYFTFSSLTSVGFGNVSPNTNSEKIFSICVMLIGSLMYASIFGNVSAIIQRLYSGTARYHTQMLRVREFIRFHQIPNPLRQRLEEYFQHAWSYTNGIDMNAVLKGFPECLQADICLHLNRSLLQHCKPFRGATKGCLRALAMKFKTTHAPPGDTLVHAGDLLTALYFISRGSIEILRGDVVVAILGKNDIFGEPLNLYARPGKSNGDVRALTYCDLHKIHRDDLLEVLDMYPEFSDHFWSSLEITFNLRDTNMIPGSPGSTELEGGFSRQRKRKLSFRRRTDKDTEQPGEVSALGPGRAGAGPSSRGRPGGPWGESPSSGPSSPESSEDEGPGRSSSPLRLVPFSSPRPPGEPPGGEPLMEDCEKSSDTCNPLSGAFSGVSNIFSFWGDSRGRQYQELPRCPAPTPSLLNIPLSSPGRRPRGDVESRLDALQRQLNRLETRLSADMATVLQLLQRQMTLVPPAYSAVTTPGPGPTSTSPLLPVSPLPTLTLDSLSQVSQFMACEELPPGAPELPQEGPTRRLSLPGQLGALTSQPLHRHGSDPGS

| SMILES | hERG current change (%, negative = inhibition) at 10uM |
| --- | --- |
| O=C(CCC(=O)Nc1ccccc1)NNC(=O)c1ccccc1Cl | 13.8% |
| Cc1cc(C)c2c(n1)sc1c(=O)n(-c3ccccc3)c(=O)[nH]c12 | 11.1% |
| COc1ccc(Cl)cc1S(=O)(=O)N1CCCC(C(=O)NCc2ccccc2)C1 (stereo not drawn) | -34.2% |
| O=C(CN1CCOc2ccccc21)NCc1ccco1 | 2.93% |
| CC(/C=N/n1c(C2CCCCC2)n[nH]c1=S)=C\c1ccccc1 | 12.5% |
| O=C(N/N=C\c1cccs1)c1sccc1-n1cccc1 | 8.13% |
| CC(C)CCn1c(SCCN2CCOCC2)nc2c1c(=O)[nH]c(=O)n2C | -17.7% |
| Cc1ccc(N=C2C(=S)N(c3ccc(C)cc3)C(=N)N2/N=C/c2ccc(Cl)cc2)cc1 | -6.29% |
| CC1CCC2(CC1)NC(=O)N(NC(=O)c1cccc(N(C)C)c1)C2=O (stereo not drawn) | 0.939% |
| COc1ccc(CCC2(C)NC(=O)NC2=O)cc1 (stereo not drawn) | -10.4% |
| O=C(Nc1ccc(Cl)cc1Cl)NC1CCCC1 | 15.2% |
| O=C(CNC(=O)c1ccncc1)N/N=C/c1ccccc1[N+](=O)[O-] | 3.3% |
| COc1ccc(NC(=O)C2CCCN(S(=O)(=O)c3cccc4nonc34)C2)cc1OC (stereo not drawn) | 19.7% |
| Cc1ccc(-c2nnc(N3CCN(S(C)(=O)=O)CC3)c3ccccc23)cc1 | -32.5% |
| CCC(C)n1c(O)c(C=NC(C)c2ccccc2)c(=O)[nH]c1=S (stereo not drawn) | 25% |
| Cc1csc(=O)n1CCC(=O)OCC(=O)Nc1cc(Cl)ccc1[N+](=O)[O-] | -28.5% |
| COc1ccc(CNC(=O)N2CCN(c3ccc(F)cc3)CC2)cc1 | -6.24% |
| CCN1CCN(C(=O)CN(c2cc(OC)ccc2OC)S(C)(=O)=O)CC1 | 16.2% |
| CCOc1nc(N(C)C)nc(-n2nnc(C(C)=O)c2C)n1 | 4.46% |
| O=C(NCCCN1CCOCC1)/C(=C/c1ccco1)NC(=O)c1ccccc1 | 1.44% |
| CCOc1ccc(-n2nc3cc(C)c(N)cc3n2)cc1 | 14.5% |
| Cc1cc(C(=O)N/N=C/c2cccnc2)c(C)o1 | 8.2% |
| O=C(Nc1ccccc1C(=O)Nc1ccccn1)c1ccccc1F | 6.58% |

| SMILES | hERG current change (%, negative = inhibition) at 10uM |
| --- | --- |
| CCC1CCCCN1Cc1c(O)ccc2c(=O)c(-c3ccccc3OC)coc12 (stereo not drawn) | 1.72% |
| COc1cc(/C=N/NC(N)=O)cc(Br)c1OCc1ccccc1C | 7.11% |
| Cc1ccc(NC(=O)C2CCCN(S(=O)(=O)c3c(C)noc3C)C2)c(Br)c1 (stereo not drawn) | 13.2% |
| CCN1CCN(c2nc3c(c(=O)n(C)c(=O)n3C)n2CCSc2nccc(C)n2)CC1 | 1.66% |
| NC(=S)NNC(=O)c1cccc(Br)c1 | 6.23% |
| C=CCn1c(O)c(C=Nc2ccc(F)cc2)c(=O)[nH]c1=O | 4.49% |
| COc1cc(C(=O)Nc2ccc(-c3nnc(-c4ccco4)o3)cc2)cc(OC)c1OC | -3.23% |
| CCOC(=O)C(NC(C)=O)(Nc1ccc(F)cc1)C(F)(F)F (stereo not drawn) | -3.72% |
| CCOC(=O)C1=C(C)N[C@@]2(O)c3ccccc3C(=O)[C@@]12O | 4.84% |
| Cc1csc(SCC(=O)NC(=O)NC(C)C)n1 | 10.2% |
| Cc1ccc(NC(=O)C(C)S)cc1 (stereo not drawn) | 13.6% |
| O=C(Nc1ccc2nc(-c3cccs3)c(-c3cccs3)nc2c1)N1CCOCC1 | 5.35% |
| COc1cc(NC(=O)CSc2nc3ncnc(N)c3[nH]2)c(C(=O)O)cc1OC | 18.3% |
| CCOP(=O)(OCC)C(O)c1ccc(Br)cc1 (stereo not drawn) | 13.3% |
| CCOC(=O)C1CCN(S(=O)(=O)c2ccc3c(c2)CC(C)N3C(=O)C2CCC2)CC1 (stereo not drawn) | -21.4% |
| COc1cc2c(cc1OC)C(c1ccccc1O)NCC2 (stereo not drawn) | 12.6% |
| Cc1ccc(NC(=O)c2ccnc(C(C)(C)C)c2)cc1 | -9.29% |
| NNc1nc2ccccc2c(=O)n1Cc1ccccc1 | 20.4% |
| Cc1ccc(C(C(=O)NCc2ccco2)N(C(=O)CNC(=O)c2cccs2)c2c(C)cc(C)cc2C)cc1 (stereo not drawn) | -9.79% |
| CCOC(=O)c1oc2ccc(S(=O)(=O)N3CCOCC3)cc2c1C | -1.64% |
| O=C(Cc1nc(-c2ccc([N+](=O)[O-])cc2)cs1)Nc1ccccc1 | -7.08% |
| Cc1ccc(OCC(=O)N/N=C/c2cc([N+](=O)[O-])ccc2N2CCCCC2)cc1 | -13.8% |
| N#CCC(=O)Nc1ccc(C(=O)OCC(=O)NNC(=O)c2cccs2)cc1 | -34.9% |

| SMILES | hERG current change (%, negative = inhibition) at 10uM |
| --- | --- |
| Cc1cc(SCC(=O)OCC(=O)NC(C)c2ccccc2)c(C)cc1Br (stereo not drawn) | 22.7% |
| CCN(c1ccccc1)S(=O)(=O)c1ccc(Cl)c(NC(=O)COC(=O)c2ccc[n+]([O-])c2)c1 | -29.9% |
| Cc1c(Cl)cccc1NC(=O)CCCn1nc([N+](=O)[O-])cc1C | 3.57% |
| CSC1=NC(C)N2C(SC)=NC(C)N12 (stereo not drawn) | 18.9% |
| COCCn1c(SCC(=O)NCc2ccc3c(c2)OCO3)nnc1-c1c[nH]c2ccccc12 | -12.2% |
| CNS(=O)(=O)c1cccc(C(=O)OCc2cc(Cl)cc3c2OCOC3)c1 | -17% |
| COc1ccc(C(=O)CC(=O)C(=O)Nc2cc(C)ccc2C)cc1 | 5.68% |
| COCc1c(C(=O)N/N=C(/C)c2cccs2)nnn1-c1nonc1N | 21.4% |
| CC(C1CC1)N(C(=O)c1ccccc1O)c1ccccc1 (stereo not drawn) | 9.8% |
| COc1ccc(NC(=S)NNC(=O)c2cccnc2)cc1OC | 18.3% |
| Cn1cc(C(=O)c2ccccc2)cc1-c1nc2ccccc2n1C | -41.9% |
| Cc1cn(C(=O)c2ccccc2)c(=S)n1-c1ccc(Br)cc1 | 17.5% |
| Cc1nc(CN2CCN(Cc3nc(C(c4ccccc4)c4ccccc4)no3)CC2)cs1 | -45.5% |
| O=C(N/N=C/c1ccccc1F)NC12CC3CC(CC(C3)C1)C2 | 14.1% |
| CCOc1ccc(NS(=O)(=O)c2ccc(NS(C)(=O)=O)cc2)cc1 | -18.9% |
| COC(=O)CCC(=O)Nc1ccc(NC(=O)CCC(=O)OC)cc1 | -8.55% |
| NC(=S)NN=C(c1ccccc1)c1ccccc1 | -21.6% |
| Cc1ccc(NC(=O)C2=CC(c3ccc(C)cc3)=NS(=O)(=O)N2C)cc1 | -22.2% |
| CN(C)S(=O)(=O)c1ccc(Cl)c(NC(=O)CN2CCC(Cc3ccccc3)CC2)c1 | 13.9% |
| CC(C)CNC(=O)c1cccc(NC(=O)c2ccc(NC(=O)c3ccco3)cc2)c1 | -43.1% |
| COc1ccccc1CNS(=O)(=O)c1cccc(S(=O)(=O)N2CCOCC2)c1 | -12.1% |
| CCCCCCOc1ccc(OC(=O)c2cccnc2)cc1 | 17% |
| Cc1csc(NC(=O)Cc2ccc(F)cc2)n1 | 21.1% |

| SMILES | hERG current change (%, negative = inhibition) at 10uM |
| --- | --- |
| CC(Sc1nncn1C)C(=O)Nc1ccc(S(N)(=O)=O)cc1 (stereo not drawn) | 15.7% |
| COc1cccc(NC(=S)N/N=C2\CC(C)(C)Oc3ccc(O)cc32)c1 | 3.3% |
| Cc1ccc(CNC(=O)c2ccc(C)s2)cc1 | 2.33% |
| Cc1cccc(NC(=S)N2CCN(S(=O)(=O)c3ccc(F)cc3)CC2)c1 | 16.7% |
| COc1ccc(CNS(=O)(=O)c2ccc(S(=O)(=O)NC3CC3)cc2)cc1 | 17.9% |
| O=C(NCCCc1ccc(F)cc1)C1CCC(=O)N(CCN2CCOCC2)C1 (stereo not drawn) | 16.1% |
| CCOc1ccc(S(=O)(=O)N2CCOCC2)cc1NC(=O)c1ccc(N2CCCC2=O)cc1 | 14.1% |
| O=C(C1CC(c2ccc(F)cc2)=NO1)N1CCc2ccccc2C1 (stereo not drawn) | 1.97% |
| Cn1c(NC(=O)c2cc(Br)ccc2Cl)cc(=O)n(C)c1=O | 1.62% |
| CCOC(=O)N1CCC(N2CCN(Cc3ccc(F)c(F)c3)C(CCO)C2)CC1 (stereo not drawn) | -44.7% |
| O=C(CSc1ncnc2sccc12)Nc1ccccc1F | -10.7% |
| Cc1ccc(-n2c(SCC(=O)N/N=C/c3ccccc3C(=O)O)nnc2-c2ccccc2)cc1 | 8.57% |
| CSc1ccc(/C=C/C(=O)Nc2ccccc2)cc1 | 5.54% |
| C/C(=C\C(=O)c1ccccc1)Nc1ccc2c(c1)OCO2 | -2.19% |
| O=C(COc1ccc(Cl)cc1Cl)NCCC1=CCCCC1 | -24.2% |
| Cc1ccc(Nc2ccc(-n3ccnc3)nn2)cc1C | -15.3% |
| Cc1ccccc1OCC(=O)OCC(=O)c1ccc(-c2ccccc2)cc1 | 11.3% |
| COc1ccc(N2CCN(C(=O)CSc3nnc4nc(C)cc(C)n34)CC2)cc1 | -26.1% |
| Cc1ccc(/C=C2\SC(=S)N(NS(=O)(=O)c3ccc(C)cc3)C2=O)cc1 | -1.18% |
| CN(C)c1nc(NN)nc(Nc2ccc(F)cc2)n1 | 12.9% |
| CCn1cnc2sc(C(=O)N3CCN(Cc4ccc5c(c4)OCO5)CC3)c(C)c2c1=O | 6.41% |
